Assay results as given in publication PMC12420824, “Discovery of a selective alpha-kinase 1 inhibitor for the rare genetic disease ROSAH syndrome” (Nature Communications, 2025).
Where two headings read alike, the source gives them in different places.

Legend:
Assay in all cases: HotSpot kinase assay
[1] = target: T1, DCAMKL1 (Homo sapiens, UniProt O15075); conditions: read-out: % Enzyme Activity (relative to DMSO control), 10 uM
T1 sequence (O15075 1-740): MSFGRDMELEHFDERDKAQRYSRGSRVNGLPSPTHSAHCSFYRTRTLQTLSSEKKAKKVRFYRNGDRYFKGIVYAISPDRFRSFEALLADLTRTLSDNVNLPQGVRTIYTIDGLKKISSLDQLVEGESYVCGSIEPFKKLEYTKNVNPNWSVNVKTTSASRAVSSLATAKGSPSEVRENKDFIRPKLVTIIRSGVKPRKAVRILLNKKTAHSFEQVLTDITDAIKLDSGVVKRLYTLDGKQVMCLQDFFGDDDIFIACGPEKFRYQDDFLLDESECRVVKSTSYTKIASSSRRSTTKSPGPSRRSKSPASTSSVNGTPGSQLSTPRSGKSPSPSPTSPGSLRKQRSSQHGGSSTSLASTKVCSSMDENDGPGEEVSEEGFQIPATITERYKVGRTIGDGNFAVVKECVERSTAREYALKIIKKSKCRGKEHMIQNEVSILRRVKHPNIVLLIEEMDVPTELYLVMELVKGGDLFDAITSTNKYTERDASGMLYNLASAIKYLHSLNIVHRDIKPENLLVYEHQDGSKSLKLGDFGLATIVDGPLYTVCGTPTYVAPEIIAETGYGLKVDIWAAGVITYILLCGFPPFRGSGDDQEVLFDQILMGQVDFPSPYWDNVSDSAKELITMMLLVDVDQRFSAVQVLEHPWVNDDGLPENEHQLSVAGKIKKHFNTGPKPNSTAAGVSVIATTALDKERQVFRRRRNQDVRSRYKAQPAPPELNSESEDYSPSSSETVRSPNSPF

[2] = target: MST3/STK24 (Homo sapiens, UniProt Q9Y6E0); conditions: read-out: % Enzyme Activity (relative to DMSO control), 10 uM
[3] = target: T2, MST2/STK3 (Homo sapiens, UniProt Q13188); conditions: read-out: % Enzyme Activity (relative to DMSO control), 10 uM
T2 sequence (Q13188 1-491): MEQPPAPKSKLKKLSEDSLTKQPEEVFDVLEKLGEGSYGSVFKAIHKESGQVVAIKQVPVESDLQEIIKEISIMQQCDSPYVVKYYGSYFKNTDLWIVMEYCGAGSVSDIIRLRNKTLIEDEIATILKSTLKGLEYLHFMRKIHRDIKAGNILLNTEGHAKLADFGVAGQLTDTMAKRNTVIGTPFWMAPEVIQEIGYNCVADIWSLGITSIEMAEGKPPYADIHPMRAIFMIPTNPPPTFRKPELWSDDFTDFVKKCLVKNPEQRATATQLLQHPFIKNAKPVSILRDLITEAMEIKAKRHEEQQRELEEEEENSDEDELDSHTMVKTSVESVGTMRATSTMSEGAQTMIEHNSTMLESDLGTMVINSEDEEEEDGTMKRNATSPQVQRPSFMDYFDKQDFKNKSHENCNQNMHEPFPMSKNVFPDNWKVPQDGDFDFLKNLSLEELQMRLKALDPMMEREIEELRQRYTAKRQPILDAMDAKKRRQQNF

[4] = target: CLK3 (Homo sapiens, UniProt P49761); conditions: read-out: % Enzyme Activity (relative to DMSO control), 10 uM
[5] = target: T3, Aurora A (Homo sapiens, UniProt O14965); conditions: read-out: % Enzyme Activity (relative to DMSO control), 10 uM
T3 sequence (O14965 1-403): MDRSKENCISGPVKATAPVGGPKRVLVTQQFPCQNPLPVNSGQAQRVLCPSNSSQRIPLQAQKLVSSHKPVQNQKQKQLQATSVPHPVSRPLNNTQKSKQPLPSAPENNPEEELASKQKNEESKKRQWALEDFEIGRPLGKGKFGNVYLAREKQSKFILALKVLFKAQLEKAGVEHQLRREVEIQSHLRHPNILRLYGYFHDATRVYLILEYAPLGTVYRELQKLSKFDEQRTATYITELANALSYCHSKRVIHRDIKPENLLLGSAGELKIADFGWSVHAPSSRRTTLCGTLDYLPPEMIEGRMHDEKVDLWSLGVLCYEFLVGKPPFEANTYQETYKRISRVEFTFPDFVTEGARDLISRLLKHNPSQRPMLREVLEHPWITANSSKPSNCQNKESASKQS

[6] = target: T4, CAMK1a (Homo sapiens, UniProt Q14012); type: biochemical; conditions: for IC50: 10-dose, ATP 10 µM
T4 construct: purchased Reaction Biology (assay service; panel enzyme)

[7] = target: T5, PLK4/SAK (Homo sapiens, UniProt O00444); conditions: read-out: % Enzyme Activity (relative to DMSO control), 10 uM
T5 sequence (O00444 1-970): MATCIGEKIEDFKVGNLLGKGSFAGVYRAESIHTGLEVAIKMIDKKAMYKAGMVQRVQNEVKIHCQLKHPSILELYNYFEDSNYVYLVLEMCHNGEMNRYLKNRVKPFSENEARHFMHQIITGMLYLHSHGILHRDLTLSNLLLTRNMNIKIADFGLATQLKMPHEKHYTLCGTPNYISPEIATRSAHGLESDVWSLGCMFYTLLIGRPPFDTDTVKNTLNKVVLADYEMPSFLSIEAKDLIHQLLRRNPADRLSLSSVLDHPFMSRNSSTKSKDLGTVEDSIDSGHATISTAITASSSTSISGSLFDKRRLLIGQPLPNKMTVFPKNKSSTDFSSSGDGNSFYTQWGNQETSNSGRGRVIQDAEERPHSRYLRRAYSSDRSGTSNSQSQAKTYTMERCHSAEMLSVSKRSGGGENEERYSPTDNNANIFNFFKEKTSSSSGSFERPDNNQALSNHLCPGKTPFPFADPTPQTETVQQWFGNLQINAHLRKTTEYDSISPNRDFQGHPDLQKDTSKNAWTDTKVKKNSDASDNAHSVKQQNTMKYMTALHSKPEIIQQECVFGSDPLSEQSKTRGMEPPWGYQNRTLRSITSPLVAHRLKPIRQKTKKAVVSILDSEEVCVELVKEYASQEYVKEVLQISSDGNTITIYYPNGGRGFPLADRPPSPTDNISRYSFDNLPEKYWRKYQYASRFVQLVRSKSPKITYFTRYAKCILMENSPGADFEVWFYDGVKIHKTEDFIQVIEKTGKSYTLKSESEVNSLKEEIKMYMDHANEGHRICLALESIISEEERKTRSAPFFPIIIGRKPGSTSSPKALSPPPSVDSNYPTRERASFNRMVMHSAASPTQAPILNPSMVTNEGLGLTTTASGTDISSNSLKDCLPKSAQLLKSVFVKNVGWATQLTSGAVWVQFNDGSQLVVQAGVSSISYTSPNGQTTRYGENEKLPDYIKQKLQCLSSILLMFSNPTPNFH

[8] = target: T6, ZAP70 (Homo sapiens, UniProt P43403); conditions: read-out: % Enzyme Activity (relative to DMSO control), 10 uM
T6 sequence (P43403 1-619): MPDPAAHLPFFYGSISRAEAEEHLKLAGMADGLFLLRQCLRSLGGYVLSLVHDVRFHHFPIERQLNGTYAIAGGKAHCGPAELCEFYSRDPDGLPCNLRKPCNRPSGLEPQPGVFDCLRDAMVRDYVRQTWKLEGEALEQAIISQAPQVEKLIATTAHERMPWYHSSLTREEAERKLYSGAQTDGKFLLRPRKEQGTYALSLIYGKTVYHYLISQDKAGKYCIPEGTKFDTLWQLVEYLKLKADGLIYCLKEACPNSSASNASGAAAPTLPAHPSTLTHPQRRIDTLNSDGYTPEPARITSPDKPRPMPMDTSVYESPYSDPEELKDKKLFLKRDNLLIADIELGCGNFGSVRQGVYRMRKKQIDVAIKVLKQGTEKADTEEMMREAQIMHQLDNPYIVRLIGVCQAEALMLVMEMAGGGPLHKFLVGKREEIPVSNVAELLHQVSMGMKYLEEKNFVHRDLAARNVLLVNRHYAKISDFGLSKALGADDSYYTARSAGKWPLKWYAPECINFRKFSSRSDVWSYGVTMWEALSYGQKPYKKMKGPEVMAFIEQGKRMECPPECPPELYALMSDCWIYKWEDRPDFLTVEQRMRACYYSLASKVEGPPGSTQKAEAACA

[9] = target: CDK5/p35 (Homo sapiens, UniProt Q00535); conditions: read-out: % Enzyme Activity (relative to DMSO control), 10 uM
[10] = target: RET (Homo sapiens, UniProt P07949); conditions: read-out: % Enzyme Activity (relative to DMSO control), 10 uM
[11] = target: T7, CAMK2g (Homo sapiens, UniProt Q13555); type: biochemical; conditions: for IC50: 10-dose, ATP 10 µM
T7 construct: purchased Reaction Biology (assay service; panel enzyme)

[12] = target: ERK5/MAPK7 (Homo sapiens, UniProt Q13164); conditions: read-out: % Enzyme Activity (relative to DMSO control), 10 uM
[13] = target: T8, P38g (Homo sapiens, UniProt P53778); conditions: read-out: % Enzyme Activity (relative to DMSO control), 10 uM
T8 sequence (P53778 1-367): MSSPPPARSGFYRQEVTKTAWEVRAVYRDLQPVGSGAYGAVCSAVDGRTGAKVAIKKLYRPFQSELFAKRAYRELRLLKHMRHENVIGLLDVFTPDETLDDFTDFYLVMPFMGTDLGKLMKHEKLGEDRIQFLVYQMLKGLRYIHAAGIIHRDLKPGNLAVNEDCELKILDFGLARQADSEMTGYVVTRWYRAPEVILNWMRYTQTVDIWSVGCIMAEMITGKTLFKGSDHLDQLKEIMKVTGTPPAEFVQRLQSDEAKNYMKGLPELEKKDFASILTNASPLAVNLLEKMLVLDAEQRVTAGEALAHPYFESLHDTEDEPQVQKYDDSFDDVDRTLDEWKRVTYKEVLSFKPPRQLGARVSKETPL

[14] = target: PKAcg (Homo sapiens, UniProt P22612); conditions: read-out: % Enzyme Activity (relative to DMSO control), 10 uM
[15] = target: T9, GRK2 (Homo sapiens, UniProt P25098); conditions: read-out: % Enzyme Activity (relative to DMSO control), 10 uM
T9 sequence (P25098 1-689): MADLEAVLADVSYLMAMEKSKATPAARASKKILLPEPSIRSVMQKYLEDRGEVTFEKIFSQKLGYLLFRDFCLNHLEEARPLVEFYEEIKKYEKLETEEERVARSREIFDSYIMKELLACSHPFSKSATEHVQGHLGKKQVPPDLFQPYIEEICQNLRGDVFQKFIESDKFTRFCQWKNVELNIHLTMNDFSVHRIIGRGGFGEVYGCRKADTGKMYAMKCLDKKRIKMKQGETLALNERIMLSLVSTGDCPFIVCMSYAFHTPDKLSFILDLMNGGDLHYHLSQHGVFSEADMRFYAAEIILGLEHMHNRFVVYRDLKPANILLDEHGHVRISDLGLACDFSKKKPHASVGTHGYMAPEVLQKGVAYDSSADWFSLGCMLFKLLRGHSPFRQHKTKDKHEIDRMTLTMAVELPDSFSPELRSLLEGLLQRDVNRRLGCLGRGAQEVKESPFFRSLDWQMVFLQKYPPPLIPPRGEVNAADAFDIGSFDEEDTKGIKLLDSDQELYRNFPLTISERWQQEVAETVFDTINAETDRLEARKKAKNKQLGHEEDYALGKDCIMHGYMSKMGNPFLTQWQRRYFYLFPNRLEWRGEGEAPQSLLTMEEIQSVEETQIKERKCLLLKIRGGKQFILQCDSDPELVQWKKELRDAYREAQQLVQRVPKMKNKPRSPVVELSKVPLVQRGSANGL

[16] = read-out: % Enzyme Activity (relative to DMSO control), 10 uM

C#C[C@@](C)(c1ccc(Cl)cc1)c1csc(NC(=O)c2c(F)cc(N3CCNCC3)cc2F)n1 (stereo in doubt) [DF-003]
remaining activity at 10 µM [1]: 77.2% | remaining activity at 10 µM [2]: 87.6% | remaining activity at 10 µM [3]: 109% | remaining activity at 10 µM [4]: 84.8% | remaining activity at 10 µM [5]: 99.7% | IC50 ([6]; read-out: IC50): 4600 nM | IC50 ([6]; DF-003 IC50 (nM)): 4600 nM | remaining activity at 10 µM [6, 16]: 2.85% | remaining activity at 10 µM [7]: 86.5% | remaining activity at 10 µM [8]: 74.6% | remaining activity at 10 µM [9]: 91.8% | remaining activity at 10 µM [10]: 84.5% | IC50 ([11]; read-out: IC50): 3100 nM | IC50 ([11]; DF-003 IC50 (nM)): 3100 nM | remaining activity at 10 µM [11, 16]: 4.13% | remaining activity at 10 µM [12]: 98.1% | remaining activity at 10 µM [13]: 110% | remaining activity at 10 µM [14]: 93.2% | remaining activity at 10 µM [15]: 111%
